Source: PubChem BioAssay AID1671193 (National Center for Advancing Translational Sciences (NCATS), 2021)
Where “and” joins values, the source holds several entries; their conditions need not be identical. Identical values can stand only once. Hit rate of the full screen: of about 150,000 compounds, about 180 (0.12%) were called active. The shares of active, inactive and inconclusive entries below differ from those in the screen. The call rests on the fitted dose curve; in most records, active means well fitted cell-killing curve with a large enough effect; inconclusive means small, poorly fitted or top-dose-only effect, or effect the other way; inactive means flat fitted curve, though single readings scatter. Potencies of inconclusive entries are doubtful fits and often do not repeat.

Experiment: GF-AFC viability counterscreen for inhibitors of alpha-synuclein gene (SNCA) expression; further: nearly all actives have a fitted effect of over 30% in size;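 on activity change, negative = cytotoxicity: 0% = DMSO-treated cells and -100% = medium-only wells without cells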
Settings: HEK-293-SNCA-luc viability, GF-AFC fluorescence, 24 h; activity change, negative = cytotoxicity: at 57.1 µM (top of the series) unless noted
Method in brief: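 HEK-293-SNCA-luc cells (1500/well) plated 24 h, then exposed 24 h to a dilution series; GF-AFC added 30 min at 37C, fluorescence 405/540 nm; normalised to medium-only and DMSO wells, Hill fit.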
Potency means the concentration at half of the fitted maximal effect; tags describe the fitted curve by direction and shape.

SMILES	Potency	activity change, negative = cytotoxicity
CN1CCN(C(=O)c2ccc3nnc(Cc4ccc(Cl)cc4)n3c2)CC1	inactive	
Cc1ccccc1-c1cnc2[nH]cc(CC(=O)Nc3ccccc3)c2c1	inconclusive: 39.8 µM [cytotoxic, single point]	
O=C(Cn1c(-c2cccs2)cc2cc(Cl)ccc21)N1CCCCC1	inconclusive: 15.8 µM [cytotoxic, partial curve, poor fit]	
O=C(Nc1cccc(-c2ccc(N3CCOCC3)nn2)c1)Nc1ccccc1C(F)(F)F	inactive	
C=CC(=O)Nc1cccc(Oc2nc(Nc3ccc(N4CCN(C)CC4)cc3OC)ncc2Cl)c1	inconclusive: 1.34 µM [cytotoxic, full curve, poor fit]	
CCC(C)n1c(=N)c(C(=O)NCc2ccco2)cc2c(=O)n3cc(C)ccc3nc21 (centres undefined)	inconclusive: 15.8 µM [rising, partial curve, poor fit]	
COc1cccc(Cn2c(=O)c(-c3cccs3)nc3cnc(Nc4ccccc4)nc32)c1	inconclusive: 3.55 µM [rising, full curve, poor fit]	
O=C(/C=C/c1ccc(O)c(O)c1)OCCc1ccccc1	inactive	
O=C(Nc1cn[nH]c1-c1nc2ccc(CN3CCOCC3)cc2[nH]1)NC1CC1	inconclusive: 12.1 µM [cytotoxic, full curve] and inconclusive: 5.32 µM [cytotoxic, partial curve, poor fit]	
NCCOCCOCCNC(=O)Cc1ccc(Nc2nc(NCc3ccc(F)cc3)nc(NCC3CCCCC3)n2)cc1	inactive	
COCCn1c(=O)cnc2cnc(Oc3ccc(OC)cc3)nc21	inconclusive: 7.94 µM [cytotoxic, full curve, poor fit]	
CC(C)C(=O)NC1CCN(c2ccnc3ccnn23)CC1	inconclusive: 44.7 µM [cytotoxic, single point]	
COc1cccc(N2C(=O)NC(=NC3CCCCC3)C23CCCN(Cc2ccc(N(C)C)cc2)C3)c1 (centres undefined)	inconclusive: 39.8 µM [cytotoxic, single point]	
O=C(Nc1nnc(-c2ccc3c(c2)OCCO3)o1)C1CCCCC1	inconclusive: 8.44 µM [rising, single point]	
O=C(NCc1ccco1)C1CCCN(c2cnn(Cc3ccccc3)c(=O)c2)C1 (centres undefined)	inconclusive: 3.16 µM [rising, full curve, poor fit]	
CCN1c2cc(C(=O)Nc3ccc(F)cc3)ccc2C(=O)N2CCCCC21 (centres undefined)	inconclusive: 3.98 µM [rising, single point]	
CCn1cc(S(=O)(=O)N2CCC(c3noc(-c4ccncc4)n3)C2)cn1 (centres undefined)	inactive	
O=S(=O)(NCCc1csc2nc(-c3ccccc3)nn12)c1ccc(Oc2ccccc2)cc1	inconclusive: 22.4 µM [cytotoxic, single point]	
Cc1ccc(-c2ncc(C(=O)NCc3ccccc3Cl)c(-c3ccncc3)n2)cc1	inconclusive: 39.8 µM [cytotoxic, single point]	
COC1CCOC2(CCN(C(=O)c3cc(F)ccc3F)CC2)C1 (centres undefined)		inactive: -3.96% [at 12.5 µM]
COc1ccc(-c2ccc3nnc(CNC(=O)c4ccc(C#N)cc4)n3n2)cc1	inactive	
O=C(COc1ccccc1)Nc1ccc2ncnc(N3CCCCC3)c2c1	inconclusive: 17.8 µM [cytotoxic, partial curve, poor fit]	

SMILES	Potency	activity change, negative = cytotoxicity
O=C(c1ccco1)N1CC(Oc2ccccc2-c2nc(-c3ccccc3)no2)C1	inconclusive: 25.1 µM [cytotoxic, partial curve, poor fit]	
COc1cccc(-n2c(SCC(N)=O)nc3c(oc4ccccc43)c2=O)c1	inconclusive: 25.1 µM [cytotoxic, partial curve, poor fit]	
COc1ccc(C(=O)NCCn2ccn3nc(-c4cc(C)ccc4C)cc3c2=O)cc1	inactive	
CC1(CNc2ccccc2)COc2ccc(C(=O)NCc3ccc(F)cc3)cc2N1 (centres undefined)	inconclusive: 28.2 µM [cytotoxic, partial curve, poor fit]	
CCN(CC)Cc1ccc2c(c1)CN(C(=O)COCCOC)CCO2	inactive	
COc1cc(CNc2nccc3c(=O)cc(N4CCOCC4)oc23)cc(OC)c1	inconclusive: 10 µM [cytotoxic, single point]	
CNc1ncnc2ccc(-c3ccccc3OC)cc12	inconclusive: 3.55 µM [cytotoxic, full curve]	
COc1ccc(-c2cc(-c3cccc(NC(C)=O)c3)cn3cncc23)cn1	inactive	
COc1ccc(CNC(=O)CC2Oc3ccc(C)cc3NC2=O)cc1 (centres undefined)	inconclusive: 1.41 µM [cytotoxic, full curve, poor fit]	
COc1ccc(-c2nc(CC3CCN(C(=O)c4ccnn4C)C3)no2)cc1 (centres undefined)	inconclusive: 31.6 µM [rising, single point]	
Cc1ccc(F)cc1-n1nc(-c2c(C)nc3scc(CC(=O)NCC(C)C)n3c2=O)cc1C	inconclusive: 39.8 µM [cytotoxic, single point]	
O=C(Cc1cccc(F)c1)NCCC1CCN(C(=O)Nc2ccccc2)CC1	inactive	
Clc1ccccc1-c1nc(-n2ccnc2)c2ccccc2n1	inconclusive: 39.8 µM [cytotoxic, single point]	
COc1ccc(C2C=C(c3ccc(Cl)cc3)Nc3nc(NC(=O)CCC(=O)O)nn32)cc1 (centres undefined)	inconclusive: 10 µM [rising, partial curve]	
Cc1ccc(C(=O)N2CCC(C(=O)N3CCC(c4ccccc4)CC3)CC2)cc1	inactive	
Cc1ccc2nc3c(c(Nc4ccc(C)c(C)c4)c2c1)CCC3	inconclusive: 31.6 µM [cytotoxic, partial curve, poor fit]	
COc1cc(C2OCC3(O)C(c4ccc(O[C@@H]5O[C@H](CO)[C@@H](O)[C@H](O)[C@H]5O)c(OC)c4)OCC23O)ccc1O (some centres undefined)	inconclusive: 3.67 µM [cytotoxic, single point]	
CCn1cc2nc(SCC(=O)Nc3ccc(OC)cc3OC)n(Cc3ccc(Cl)cc3)c(=O)c2n1	inconclusive: 8.91 µM [cytotoxic, full curve, poor fit]	
CN1CC(=O)N(c2ccc(Cl)cc2)Cc2c1ncnc2N1CCCCC1	inactive	
Cc1ccc(C2C=C(c3ccc(Cl)cc3)Nc3nc(NC(=O)c4ccco4)nn32)cc1 (centres undefined)	inconclusive: 22.4 µM [rising, partial curve]	
COc1ccc(NC(=O)CSC2=Nc3ccccc3C3=NC(CC(=O)NCc4ccc5c(c4)OCO5)C(=O)N23)cc1 (centres undefined)	inconclusive: 22.4 µM [cytotoxic, partial curve, poor fit]	
Cc1cccc(N2CCN(S(=O)(=O)c3c(C(=O)N4CCC(C)CC4)c(C)n(C)c3C)CC2)c1C	inconclusive: 31.6 µM [cytotoxic, partial curve, poor fit]	

SMILES	Potency	activity change, negative = cytotoxicity
COc1ccc(CNc2nc(-c3ccc(N(C)C)cc3)nc3ccccc23)c(OC)c1	inconclusive: 22.4 µM [cytotoxic, partial curve]	
COc1cccc(CN2C[C@@H](F)[C@@H](OCc3nc4ccccc4o3)C2)n1	inactive	
CCn1cc(CN2CCN(Cc3ccccc3)CC2)ccc1=O	inactive	
COCCc1noc(C2CNC2)n1	inconclusive: 20 µM [cytotoxic, partial curve, poor fit]	
Cc1ccc(Cl)cc1NC(=O)Cn1ncc2c(C)n(Cc3ccccc3F)c(C)c2c1=O	inconclusive: 31.6 µM [rising, partial curve, poor fit]	
O=c1cnc2cnc(Oc3ccccc3)nc2n1C1CC1	inconclusive: 2.51 µM [cytotoxic, full curve]	
CN1Cc2ccc(NCc3ccccc3)nc2C(C)(C(=O)NCCOc2ccccc2)C1 (centres undefined)	inconclusive: 28.2 µM [cytotoxic, single point]	
Nc1nc2ccc(Cl)cc2c2nc(-c3ccco3)nn12	inconclusive: 28.2 µM [cytotoxic, single point]	
COC[C@@H]1CN(C(=O)c2ccc(OC)nc2)C[C@H]1c1ccccn1	inconclusive: 12.6 µM [cytotoxic, partial curve, poor fit]	
CNC(=O)[C@@H]1CN(S(=O)(=O)c2cnc[nH]2)C[C@H]1c1n[nH]c(C)n1	inconclusive: 8.91 µM [cytotoxic, single point]	
CSc1cccc(NC(=O)CN2C(=O)COc3ccc(S(=O)(=O)N4CCC(C)CC4)cc32)c1	inconclusive: 39.8 µM [cytotoxic, single point]	
COCc1cc(C[C@H]2CNCC[C@H]2CC(=O)N(C)Cc2ccccc2)no1	inactive	
CC(C)(C)C(=O)N1CCCC(C(=O)N2CCC(N3Cc4cccn4C3=O)CC2)C1 (centres undefined)	inactive	
O=C(Nc1ccccc1)C1CCN(C(=O)N2CC3CC(C2)[C@H]2CCCC(=O)N2C3)CC1 (some centres undefined)	inactive	
COc1ccc(-c2nc3cnc(N4CCNCC4)nc3n(CCC#N)c2=O)cc1	inconclusive: 25.1 µM [rising, partial curve, poor fit]	
CCCc1nnc([C@H]2CCN(Cc3ncc[nH]3)C2)o1	inactive	
CNC(=O)c1cc(-c2ccc(Cl)nc2)nc2c1cnn2C	inactive	
COc1cccc(C(=O)NC2CCN(c3nc4ncccc4o3)CC2)c1	inconclusive: 14.1 µM [cytotoxic, partial curve, poor fit]	
Cc1nc(C)c(C(=O)N2CCCCCCNC(=O)[C@@H]3CCC[C@@H]32)s1	inconclusive: 8.91 µM [cytotoxic, full curve, poor fit]	
N#Cc1ccccc1CN1CCNc2nc(CNCc3ccc4c(c3)OCO4)n(Cc3ccccc3)c2C1=O	inconclusive: 11.2 µM [cytotoxic, partial curve, poor fit]	
